The values that follow come from article PMC4336329 (PLoS ONE, 2015).

Out of some 310,000 compounds screened, about 14,000 (4.5%) showed an effect of 50% or more. The effect is printed as a negative number. Some of the results follow. Where a SMILES comes first, the peptide text is derived from it. The star is where a group is joined. Cbz = O=C(OCc1ccccc1)*
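Also: peak tail current of the secondary pulse compared with the same well before compound.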

For this test, the target named is human ether-à-go-go-related gene (hERG) potassium channel (human, UniProt Q12809). Kind of test: primary screen, population patch clamp on CHO cells stably expressing hERG.
Sequence of human ether-à-go-go-related gene (hERG) potassium channel (Q12809 whole entry, looked up): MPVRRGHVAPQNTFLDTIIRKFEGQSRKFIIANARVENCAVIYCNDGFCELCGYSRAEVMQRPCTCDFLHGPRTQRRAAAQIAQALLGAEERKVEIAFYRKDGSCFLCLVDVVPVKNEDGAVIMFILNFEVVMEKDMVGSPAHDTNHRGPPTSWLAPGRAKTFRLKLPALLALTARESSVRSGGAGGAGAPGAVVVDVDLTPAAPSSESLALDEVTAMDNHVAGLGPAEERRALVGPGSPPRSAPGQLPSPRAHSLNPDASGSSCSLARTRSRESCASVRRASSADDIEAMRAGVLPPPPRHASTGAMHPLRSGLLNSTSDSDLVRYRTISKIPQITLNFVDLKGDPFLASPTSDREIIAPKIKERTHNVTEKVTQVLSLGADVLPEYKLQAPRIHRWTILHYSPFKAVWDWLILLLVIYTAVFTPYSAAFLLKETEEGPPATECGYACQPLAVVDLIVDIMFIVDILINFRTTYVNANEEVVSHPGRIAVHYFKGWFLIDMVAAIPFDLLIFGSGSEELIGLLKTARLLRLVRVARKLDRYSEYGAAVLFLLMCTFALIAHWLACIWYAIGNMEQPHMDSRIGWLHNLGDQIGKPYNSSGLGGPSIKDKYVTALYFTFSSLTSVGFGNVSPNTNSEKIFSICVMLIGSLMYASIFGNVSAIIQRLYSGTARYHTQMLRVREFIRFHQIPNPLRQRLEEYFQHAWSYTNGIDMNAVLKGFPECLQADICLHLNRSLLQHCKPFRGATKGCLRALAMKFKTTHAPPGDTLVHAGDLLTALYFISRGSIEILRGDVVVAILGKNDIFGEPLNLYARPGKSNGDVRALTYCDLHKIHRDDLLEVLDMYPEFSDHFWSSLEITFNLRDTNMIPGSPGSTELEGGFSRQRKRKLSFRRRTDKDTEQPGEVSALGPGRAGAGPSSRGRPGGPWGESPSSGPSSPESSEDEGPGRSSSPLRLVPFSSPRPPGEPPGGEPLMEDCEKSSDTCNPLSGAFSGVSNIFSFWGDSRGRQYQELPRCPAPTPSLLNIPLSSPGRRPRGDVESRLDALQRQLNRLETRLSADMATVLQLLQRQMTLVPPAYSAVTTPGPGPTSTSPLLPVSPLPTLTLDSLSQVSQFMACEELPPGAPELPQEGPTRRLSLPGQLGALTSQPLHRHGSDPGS
In the case of `CC(C)OCCCn1c(=NC(=O)c2cccs2)c(C#N)cc2c(=O)n3ccccc3nc21`, the “hERG current change (%, negative = inhibition) at 10uM” value is recorded as -77.6%. For `Cc1cccc(NC(=O)CSc2nnc(C)n2Cc2ccccc2)c1` the value was -29%; for `CC(=O)Nc1ccc2nc(NC(=O)c3ccco3)sc2c1`, 1.09%; for `Cc1ccccc1N(C(=O)c1csnn1)C(C(=O)NC(C)(C)C)c1cccs1` (stereo not drawn), -0.871%. With `Cc1ccc(NS(=O)(=O)c2ccc3c(c2)oc(=O)n3C)cc1`, the “hERG current change (%, negative = inhibition) at 10uM” value was 19.6%. The result for `CCOC(=O)c1cnc2nc(SC)nn2c1N` reads -0.21%.

Turning to `O=c1[nH]ncc(N2CCN(Cc3ccccc3)CC2)c1Cl`, the “hERG current change (%, negative = inhibition) at 10uM” value was -14.4%. For `CC(/C=C/c1ccco1)=N/NC(=O)c1ccc(C)nc1` the value was 18.6%; for `O=C(COCc1cc(-c2ccc3c(c2)OCO3)on1)N1CCN(c2cccc(C(F)(F)F)c2)CC1`, 9.73%; for `O=[N+]([O-])c1ccc(Nc2ccc(F)cc2)nc1`, 0.417%. The result for `COc1ccc(CN(C)C(=O)c2oc3ccccc3c2CSC)cc1F` reads 14.4%; that for `CCN(CC)S(=O)(=O)N1CCC(C(=O)NC2CCCc3ccccc32)CC1` (stereo not drawn), -8%; that for `Cc1cc(C)c(S(=O)(=O)c2ccccc2)c(OC(=O)c2ccc(Cl)cc2Cl)n1`, -12.3%. For `CN(CCOC(=O)c1ccccc1)Cc1ccccc1.Cl` the value was -10.2%. As to `O=C(Cn1c(-c2cscn2)nc2ccccc21)Nc1ccc(Cl)cc1`, the “hERG current change (%, negative = inhibition) at 10uM” value is -7.59%. For the compound `CCn1c(CNC(=O)COc2ccc(C(C)C)cc2)nnc1SCC(=O)Nc1cc(F)ccc1C`, the “hERG current change (%, negative = inhibition) at 10uM” value is listed as -65.7%. For `COc1ccc(N(CC(=O)NC2CCCC2)C(=O)Cn2nnc(-c3ccc(C)cc3)n2)cc1OC` the value was -3.68%; for `CCCN1CCN(CCCNC(=O)Cn2nc(-c3ccccc3)ccc2=O)CC1`, -22.2%; for `Cc1ccc(CNC(=O)CCC(=O)c2cccs2)cc1`, -12.5%. For `O=C(CN1C(=O)NC(Cc2c[nH]c3ccccc23)C1=O)Nc1cccc(S(=O)(=O)N2CCOCC2)c1` (stereo not drawn) the value was 5.66%; for `O=c1c2c(nc3cc(-c4cccc(Cl)c4)[nH]n13)CCC2`, -4.13%.

For `CCOC(=O)C1C(c2ccc(O)c(OCC)c2)NC(=S)NC1(O)C(F)(F)F` (stereo not drawn), the “hERG current change (%, negative = inhibition) at 10uM” value is reported as -12.5%. For `Fc1ccccc1NC(=S)NCc1ccc(Cl)cc1` the value was 16.3%.

Take `O=C(N/N=C/c1ccc(O)c(Br)c1)c1cc2c(ccc3ccccc32)o1`: the “hERG current change (%, negative = inhibition) at 10uM” value came to 13.1%. The result for `Cc1nn(-c2ccccc2)nc1C(=O)NNC(=O)c1cccc2ccccc12` reads -16.5%; that for `O=C1C=C(c2ccc(O)cc2)C[C@@H](c2ccc(Cl)cc2)C1`, 23.8%. The result for `CCOc1ccc(S(=O)(=O)N2CCN(C(=O)c3cc(-c4ccccc4)nn3-c3ccccc3)CC2)cc1` reads -11%. For `CCn1c(SCc2cccc(F)c2)nnc1-c1cccnc1` the value was -0.291%; for `COc1ccc2[nH]cc(S(=O)(=O)c3ccc(C)cc3)c2c1`, -3.08%; for `COc1ccc(NC(=O)c2ccccc2S(=O)c2ccccc2C#N)cc1` (stereo not drawn), -4.48%. Turning to `C=CCn1c(SCC(=O)Nc2ccc(F)cc2)nc2cc(C(=O)O)ccc2c1=O`, the “hERG current change (%, negative = inhibition) at 10uM” value came out at 18.8%. With `CC1=NN(C(N)=S)C(=O)C1N=Nc1cc(Cl)ccc1Cl` (stereo not drawn), the “hERG current change (%, negative = inhibition) at 10uM” value was 28.1%. For `CC1=C(C#N)C2C(/C1=N/O)C2(C)C` (stereo not drawn) the value was 18.7%; for `COc1cn(-c2ccccc2)nc1C(=O)Nc1ccccc1`, 2.77%. Take `CN(C1(C)CCS(=O)(=O)C1)S(=O)(=O)c1ccc2ccccc2c1` (stereo not drawn): the “hERG current change (%, negative = inhibition) at 10uM” value turned out to be 0.167%. The result for `COc1cc(SC)ccc1C(=O)N1CCN(S(=O)(=O)/C=C/c2ccccc2)CC1` reads -56.5%; that for `C/C(=N\NC(=O)c1ccc(Br)o1)c1cc2c(cc1NC(=O)CCC(=O)O)OCO2`, 10.5%; that for `Cn1cnc2cc(NCc3cccs3)ccc21`, -0.349%. For `COc1ccc(C(=O)N2CCCC(C(=O)N3CCCCCC3)C2)cc1` (stereo not drawn) the value was 4.8%; for `O=C(O)CCC(NC(=O)C1CCCN1C(=O)OCc1ccccc1)C(=O)O` (stereo not drawn) (Cbz-Pro-Glu-OH; configuration not given here), 14%; for `O=C(O)c1ccc(-c2ccc(O)c(F)c2)cc1`, 4.41%. For `CCn1c(-c2cc(-c3ccc(OC(C)C)cc3)nc3ccccc23)n[nH]c1=S` the value was 2.71%.
